In PubChem BioAssay AID488969 (Vanderbilt High Throughput Screening Facility, 2010):
Over roughly 110,000 compounds, “z-score” has its median near -0.1; the highest 2% begin near 2. This is one part of the list.

Each compound was assayed against Metabotropic glutamate receptor 8 (Rattus norvegicus) (UniProt P70579) (assay: rat mGluR8 modulators via GIRK flux, primary screen, cell-based, thallium flux, HTS (AID 488969)). Settings: HEK293 rat mGluR8, GIRK (G protein-gated inwardly rectifying potassium channel) thallium flux, FluoZin2; at 10 µM; stronger effect = higher value; submaximal glutamate (EC20) added with thallium.
Sequence of UniProt P70579 (P70579 whole entry, looked up): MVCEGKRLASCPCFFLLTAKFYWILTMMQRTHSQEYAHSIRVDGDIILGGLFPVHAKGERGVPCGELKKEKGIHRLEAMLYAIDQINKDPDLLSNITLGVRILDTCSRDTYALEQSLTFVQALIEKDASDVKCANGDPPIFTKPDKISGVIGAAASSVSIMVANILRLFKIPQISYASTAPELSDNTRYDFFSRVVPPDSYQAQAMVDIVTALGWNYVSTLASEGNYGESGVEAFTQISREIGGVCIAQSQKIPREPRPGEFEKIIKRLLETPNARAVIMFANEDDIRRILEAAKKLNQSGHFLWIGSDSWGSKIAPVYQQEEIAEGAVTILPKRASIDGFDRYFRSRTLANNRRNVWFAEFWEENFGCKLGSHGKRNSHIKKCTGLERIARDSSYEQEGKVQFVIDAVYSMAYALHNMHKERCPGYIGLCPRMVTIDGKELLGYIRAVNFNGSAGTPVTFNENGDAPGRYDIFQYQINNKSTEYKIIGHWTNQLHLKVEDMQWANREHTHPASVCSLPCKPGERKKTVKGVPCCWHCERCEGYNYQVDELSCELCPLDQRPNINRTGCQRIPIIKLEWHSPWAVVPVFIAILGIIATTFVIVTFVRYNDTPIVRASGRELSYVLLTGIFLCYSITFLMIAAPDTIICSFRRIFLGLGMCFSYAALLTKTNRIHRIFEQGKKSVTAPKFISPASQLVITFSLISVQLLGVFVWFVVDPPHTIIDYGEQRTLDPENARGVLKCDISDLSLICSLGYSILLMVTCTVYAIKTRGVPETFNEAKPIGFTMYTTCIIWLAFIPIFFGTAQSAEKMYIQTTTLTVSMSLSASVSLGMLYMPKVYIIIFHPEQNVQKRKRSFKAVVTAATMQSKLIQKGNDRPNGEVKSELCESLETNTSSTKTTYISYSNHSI

| SMILES | z-score |
| --- | --- |
| COc1ccc(Cl)cc1NC(=O)CN(C1CCCCC1)S(C)(=O)=O | 0.0369 |
| COc1ccccc1N(CC(=O)NCc1ccccc1)C(=O)CCC(=O)Nc1cc(C)ccn1 | -2.26 |
| COCCn1c(CN2CC(C)CC(C)C2)nc2c1c(=O)n(C)c(=O)n2C (centres undefined) | -0.298 |
| O=C(CN1CCCc2ccccc21)N/N=C/c1ccccc1 | 0.502 |
| COCCSc1ccccc1C(=O)Nc1nnc(COC)s1 | -0.364 |
| COc1cc(/C=C2\SC(N)=NC2=O)ccc1OCC(=O)Nc1ccc(C)cc1 | -0.311 |
| CN1CCc2c(sc(N)c2C(N)=O)C1 | -0.167 |
| CC(C)(C)NC(=O)CN(C(=O)CNC(=O)c1cccs1)c1ccc2c(c1)OCCO2 | -0.126 |
| Cc1ccccc1NC(=O)CSc1nnc(Cc2cccn2C)n1-c1ccc(F)cc1 | -1.8 |
| COc1ccc(Cl)cc1C(=O)Nc1ccccc1N1CCN(C)CC1 | 1.61 |
| COc1ccc(Nc2nc(NC(C)(C)C)nc(N3CCCC3)n2)c(OC)c1 | -0.481 |
| O=C(Nc1ccc(-n2ccnc2P(=O)(O)c2ccccc2)cc1)c1ccccc1Br | -0.0467 |
| O=C(Nc1ccc(Cl)cc1)c1cnc(-c2ccccc2)nc1-c1ccccc1 | -0.78 |
| CN(C)S(=O)(=O)c1ccc(Cl)c(NC(=O)CSc2nc3c(cc2C#N)C(=O)CC(C)(C)C3)c1 | -1.06 |
| CC(=O)N(C1=C(O)c2ccccc2C(=O)C1=O)C1CCCCC1 | 0.107 |
| COc1cc(OC)c(C(=O)NC2CC(C)(C)NC(C)(C)C2)cc1OC | 0.123 |
| CCCC12CN3CCN(CC(C3)/C1=N\NC(=O)Nc1ccccc1)C2 | -0.242 |
| Cc1ccc(C)c2[nH]c(=O)c(CN(CC3CCCO3)S(=O)(=O)c3ccc4c(c3)OCCO4)cc12 (centres undefined) | -0.106 |
| CC(C)C(C(=O)NC1CCCCC1)N(CC1CCCO1)C(=O)CNS(=O)(=O)c1ccc(F)cc1 (centres undefined) | -0.692 |
| C#CCSc1nnc(-c2ccccc2)c(=O)[nH]1 | -0.655 |
| Cc1ccc(Cn2c(S(=O)(=O)O)nc3ccccc32)cc1 | -0.0368 |
| Cc1cc(C(=O)CN2C(=O)NC3(CCCc4ccccc43)C2=O)c(C)n1Cc1ccccc1 (centres undefined) | 0.254 |

| SMILES | z-score |
| --- | --- |
| Cc1ccc(CNS(=O)(=O)c2cn(C)cn2)cc1 | -0.0597 |
| O=S(=O)(NC1CCCCC1NCc1ccco1)c1ccccc1 (centres undefined) | -0.558 |
| CCOCCc1nnc(NC(=O)CSc2ccccc2)s1 | 0.805 |
| COC(=O)/C=C1\N/C(=N\c2nc(C)cc(C)n2)N(c2ccc(C)c(C)c2)C1=O | 0.0494 |
| O=C(OCCN1C(=O)c2ccccc2C1=O)C1CCN(S(=O)(=O)c2cccs2)CC1 | -0.82 |
| Nn1c(SC/C=C/c2ccccc2)nnc1-c1cccnc1 | 0.773 |
| C=CCNS(=O)(=O)c1cccc2cc(C(=O)O)c(O)cc12 | -0.00419 |
| CC1CC2=C(C(=O)O1)C(C)Nc1ccccc1N2 (centres undefined) | -0.08 |
| Cc1c(NC(=O)c2cnn3cccnc23)c(=O)n(-c2ccccc2)n1C | -0.106 |
| Cc1ccccc1-n1cnnc1SCC(=O)N1CCN(c2ccccc2)CC1 | -0.0442 |
| COc1ccc(OC)c(NC(=O)C2CCN(Cc3cnn(-c4ccccc4)c3-n3cccc3)CC2)c1 | -0.109 |
| CCOc1ccc(NC(=O)c2ccccc2NC(=O)CN(C)CC(=O)Nc2ccc(C)cc2)cc1 | -0.391 |
| O=S(=O)(Nc1ccc(N2CCCCC2)cc1)c1cccc2cccnc12 | -0.51 |
| O=C(/C=C/c1ccccc1)c1ccoc1 | 0.277 |
| CC1(C)CC(CC(=O)Nc2ccc([N+](=O)[O-])cc2)C(=O)O1 (centres undefined) | -0.134 |
| CN(C)S(=O)(=O)c1cccc(NC(=O)Cn2cnc3ccccc3c2=O)c1 | 0.0344 |
| CCCCN(C(=O)c1ccc(Cl)cc1)C1CC2CCC(C1)N2C (centres undefined) | -1.81 |
| CCN1C(=O)c2cccc3c(S(=O)(=O)NCCCN4CCOCC4)ccc1c23 | -0.0858 |
| Cc1cc(O)c(/C=N/Nc2ccccc2Cl)c(=O)o1 | -0.357 |
| CCOC(=O)c1cc2sc(C)cc2n1CC(=O)N1CCc2ccccc21 | 0.0347 |
| N#Cc1cc(-c2ccccc2)cnc1Sc1ccccc1 | 0.108 |
| Cc1ccc(C(=O)COC(=O)c2cccc(NC(=O)c3ccc([N+](=O)[O-])cc3[N+](=O)[O-])c2)cc1 | 0.41 |

| SMILES | z-score |
| --- | --- |
| Fc1ccccc1CSc1nncn1NC/C=C/c1ccccc1 | 0.0136 |
| N#Cc1c(N)n[nH]c1CCCN | 0.49 |
| Cc1cc(/C=N/NC(=O)C(=O)N2CCCC2)c(C)n1-c1cccc(Br)c1 | -0.272 |
| COc1ccc(-c2nnc(SCC(=O)NNC(=O)Cc3ccccc3)n2C)cc1OC | -0.209 |
| COC(=O)c1c(C)nc2ccccc2c1-c1ccccc1 | -0.899 |
| CCOCCCNC(=O)C(c1ccc(Cl)cc1)N1CCC2(CC1)OCCO2 (centres undefined) | 0.279 |
| Cc1ccc(Cn2c(NS(=O)(=O)c3ccccc3)nc3ccccc32)cc1 | -0.112 |
| O=C(NCc1ccc2c(c1)OCO2)c1ccc(-c2ccc(Cl)cc2)o1 | -0.182 |
| C=CCSc1nc2c(cc1C#N)CCC2 | -0.145 |
| CN(c1ccccc1)c1nc(N)c(C#N)c(CC#N)c1C#N | 0.000795 |
| Cn1c(Cn2nnc(-c3ccccc3)n2)nnc1SCc1ccccc1Cl | -1.29 |
| CCS(=O)(=O)N1CCN(Cc2ccc([N+](=O)[O-])cc2)CC1 | -0.173 |
| CC(=O)N(C)c1ccc(NC(=O)c2cnn(C)c2)cc1 | -0.257 |
| O=S(=O)(NCCc1ccncc1)c1ccccc1 | -0.229 |
| CN(C)CCNC(=O)c1ccc(CS(=O)(=O)c2c(Cl)cccc2Cl)o1 | -0.0595 |
| Cc1ccc(Cc2c(C)nc3nc(SCC(=O)NCCN4CCOCC4)nn3c2C)cc1 | 0.396 |
| CC(C(=O)NC(=O)NC1CCCCC1)N1CCN(c2ccccn2)CC1 (centres undefined) | 0.0805 |
| CCOC(=O)/C(C#N)=C/c1ccc(OCC(=O)Nc2ccccc2)c(OC)c1 | 0.0579 |
| CCc1nc(SCC(=O)Nc2cc(C)on2)c2c(=O)n(C)c(=O)n(C)c2n1 | 1.33 |
| O=C(C1CCN(S(=O)(=O)c2cccc3cccnc23)CC1)N1CCN(c2ccccn2)CC1 | -0.257 |
| CC(C)C(=O)Nc1ccc(C(=O)N2CCN(C(=O)c3ccco3)CC2)cc1 | 0.196 |
| CCOc1ccccc1NC(=O)C1CCN(S(=O)(=O)c2c(C)nn(C)c2C)CC1 | -0.644 |

| SMILES | z-score |
| --- | --- |
| Cc1nn(CCC(=O)NNC(=S)Nc2cccc(Cl)c2)c(C)c1[N+](=O)[O-] | 0.117 |
| COc1ccc(S(=O)(=O)n2ccc(C(C)Oc3ccc(-c4ccccc4)c(F)c3)n2)cc1 (centres undefined) | 0.0679 |
| O=C(CSc1ccc(Cl)cc1)Nc1ccc(N2CCN(C(=O)c3ccc(Cl)cc3)CC2)cc1 | -0.126 |
| Cc1ccc(NC(=O)/C=C/c2cccc(C(F)(F)F)c2)cc1 | -0.0132 |
| COC(=O)c1sccc1NC(=O)c1ccoc1C | -0.194 |
| CC1Cc2cc(/C(O)=C3/C(=O)C(=O)N(CC4CCCO4)C3c3ccco3)ccc2O1 (centres undefined) | -0.183 |
| COc1ccc(NC2c3ccccc3C(=O)N2c2ccccn2)cc1Cl (centres undefined) | -0.839 |
| CC(=O)NS(=O)(=O)c1ccc(NC(=S)NC(=O)C(C)(C)C)cc1 | -0.209 |
| CC(C)CC(=O)Nc1ccc(-c2nc3ccccc3c(=O)o2)cc1 | 0.41 |
| CC1CCN(c2ccccc2NC(=O)c2ccc(F)cc2)CC1 | -0.52 |
| CCC(=O)Nc1nc2ccc(NC(C)=O)cc2s1 | -0.322 |
| COc1cccc(C2CC(c3ccccc3Cl)Nc3ncnn32)c1 (centres undefined) | -0.106 |
| CCOC(=O)c1sc(NC(=O)CSc2nnc(Cc3ccccc3)o2)c(C#N)c1C | -0.503 |
| COc1ccc(-n2c(-c3cccc(OC)c3)nc(=S)c3c2CCCC3)cc1 | -0.329 |
| O=C(COC(=O)c1ccc2[nH]c3c(c2c1)CCCC3)Nc1ccccc1 | 0.042 |
| COCCNC(=S)N/N=C(\C)c1ccc(-n2ccnc2)cc1 | -0.146 |
| N#Cc1ccc(Oc2ccc(/C=N/O)cn2)cc1 | -0.177 |
| CC1(C)C(=O)Nc2ccccc2N1C(=O)CSc1nnc2ccccn12 | 0.281 |
| O=C(CN1CCN(Cc2ccccc2Cl)CC1)N/N=C/C=C/c1ccccc1[N+](=O)[O-] | 0.12 |
| O=S1(=O)N=C(Nc2nc3c(s2)CCCC3)c2ccccc21 | 0.105 |
| Oc1ccccc1C1=NOC(O)(C(F)F)C1 (centres undefined) | 1.11 |
| CCSc1nnc(NC(=O)CSc2nnc(CNC(=O)c3ccccc3F)o2)s1 | -0.0692 |

| SMILES | z-score |
| --- | --- |
| COc1ccc(CN(C2CCCC2)S(=O)(=O)c2ccc(-n3cnnn3)cc2)cc1 | -1.17 |
| COc1ccc(NC(=O)C(NC(=O)c2ccccc2)C(C)C)cc1 (centres undefined) | 0.116 |
| Cc1nc(NC(=O)c2ccco2)sc1-c1csc(Nc2ccc(Cl)cc2)n1 | 0.0558 |
| O=C1Nc2ccccc2C12OC1CCCCC1O2 (centres undefined) | -0.0948 |
| CN(/N=C/c1ccncc1)c1cnn(-c2ccc(F)c(Cl)c2)c(=O)c1Cl | -0.359 |
| Cc1ccc(S(=O)(=O)Nc2ccccc2-c2ccccc2)cc1 | 0.418 |
| Cc1ccc(-c2c3c(=O)n(C)c(=O)n(C)c3c3nnc4ccccc4n23)cc1 | -0.843 |
| O=C(Nc1cccc(NC(=O)c2ccc(Br)o2)n1)c1ccc(Br)o1 | -0.11 |
| CN1C(=O)NC2(O)C(=O)c3ccccc3C12O (centres undefined) | 0.246 |
| CC(NC(=O)C(C(=O)c1cccc([N+](=O)[O-])c1)n1cc(Cl)ccc1=O)c1ccccc1 (centres undefined) | 0.926 |
| Cc1ccc(NC(=O)c2csnn2)c(C)c1 | 0.804 |
| CCc1nc2ccccc2c(C(=O)OCc2nnc(-c3ccccc3)o2)c1C | -0.557 |
| O=C(CCC(=O)Nc1ccc(Oc2ccccc2)cc1)NCCO | -0.219 |
| O=C(NCCSc1ccccc1)c1cncc(Br)c1 | 0.24 |
| CCC(=O)Nc1c2c(nc3c1CCC3)CCCC2 | -0.351 |
| O=C(CSc1nnc(-c2ccc(Br)cc2)n1CCc1ccccc1)NC1CCS(=O)(=O)C1 (centres undefined) | -0.076 |
| O=C(C1CCCN(Cc2ccccc2)C1)N1CCc2ccccc2C1 (centres undefined) | 0.595 |
| CC1CCCCN1Cc1nc2c(c(=O)n(C)c(=O)n2C)n1CCc1ccccc1 (centres undefined) | -0.817 |
| CC(=O)Cn1c(N2CCC(Cc3ccccc3)CC2)nc2c1c(=O)[nH]c(=O)n2C | -0.571 |
| CCOc1ccc(CC(=O)NCc2cn3c(C)csc3n2)cc1 | -0.457 |
| Cc1c(Cl)cccc1N=Cc1ccc([N+](=O)[O-])s1 | -0.206 |
